From the supplement of paper PMC8728848
The other results are listed elsewhere or left out.

What was measured:
Assay in all cases: glycan array binding signal (z-score within array); higher = stronger binding
Details in all cases: glycan notation: IUPAC condensed, linker removed
[1] = molecular target: Neu5Ac(a2-3)Gal(b1-3)GlcNAc6S
How it was run: (§1)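 Glycan array data came from 3228 arrays in the Consortium for Functional Glycomics database, and only arrays with an available protein sequence were kept. Glycan names were put into IUPAC-condensed notation, and columns mapping to the same glycan were averaged. The binding signal is a within-array Z-score, averaged across arrays of one protein sequence run at different concentrations or buffers and across linkers. A negative Z-score can be read as non-binding.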

[2] = molecular target: Neu5Ac(a2-3)Gal(b1-3)[Fuc(a1-4)]GlcNAc
How it was run: as §1

[3] = molecular target: Neu5Ac(a2-3)Gal(b1-3)[Fuc(a1-4)]GlcNAc(b1-3)Gal(b1-3)[Fuc(a1-4)]GlcNAc
How it was run: as §1

[4] = molecular target: Neu5Ac(a2-3)Gal(b1-3)[Fuc(a1-4)]GlcNAc(b1-3)Gal(b1-4)[Fuc(a1-3)]GlcNAc
How it was run: as §1

[5] = molecular target: Neu5Ac(a2-3)Gal(b1-3)[GlcNAc(b1-6)]GalNAc
How it was run: as §1

[6] = molecular target: Neu5Ac(a2-3)Gal(b1-3)[Neu5Ac(a2-6)]GalNAc
How it was run: as §1

[7] = molecular target: Neu5Ac(a2-3)Gal(b1-3)[Neu5Ac(a2-6)]GlcNAc(b1-3)[Fuc(a1-3)[Gal(b1-4)]GlcNAc(b1-6)]Gal(b1-4)Glc
How it was run: as §1

[8] = molecular target: Neu5Ac(a2-3)Gal(b1-3)]Neu5Ac(a2-3)Gal(b1-4)]GlcNAc
How it was run: as §1

[9] = molecular target: Neu5Ac(a2-3)Gal(b1-4)Glc
How it was run: as §1

[10] = molecular target: Neu5Ac(a2-3)Gal(b1-4)GlcNAc
How it was run: as §1

[11] = molecular target: Neu5Ac(a2-3)Gal(b1-4)GlcNAc(b1-2)Man
How it was run: as §1

[12] = molecular target: Neu5Ac(a2-3)Gal(b1-4)GlcNAc(b1-2)Man(a1-3)[GlcNAc(b1-4)][Neu5Ac(a2-3)Gal(b1-4)GlcNAc(b1-2)Man(a1-6)]Man(b1-4)GlcNAc(b1-4)GlcNAc
How it was run: as §1

[13] = molecular target: Neu5Ac(a2-3)Gal(b1-4)GlcNAc(b1-2)Man(a1-3)[Neu5Ac(a2-3)Gal(b1-4)GlcNAc(b1-2)Man(a1-6)]Man(b1-4)GlcNAc(b1-4)GlcNAc
How it was run: as §1

[14] = molecular target: Neu5Ac(a2-3)Gal(b1-4)GlcNAc(b1-2)Man(a1-3)[Neu5Ac(a2-3)Gal(b1-4)GlcNAc(b1-2)Man(a1-6)]Man(b1-4)GlcNAc(b1-4)[Fuc(a1-6)]GlcNAc
How it was run: as §1

[15] = molecular target: Neu5Ac(a2-3)Gal(b1-4)GlcNAc(b1-2)Man(a1-3)[Neu5Ac(a2-6)Gal(b1-4)GlcNAc(b1-2)Man(a1-6)]Man(b1-4)GlcNAc(b1-4)GlcNAc
How it was run: as §1

[16] = molecular target: Neu5Ac(a2-3)Gal(b1-4)GlcNAc(b1-2)[Neu5Ac(a2-3)Gal(b1-4)GlcNAc(b1-4)]Man(a1-3)[GlcNAc(b1-4)][Neu5Ac(a2-3)Gal(b1-4)GlcNAc(b1-2)[Neu5Ac(a2-3)Gal(b1-4)GlcNAc(b1-6)]Man(a1-6)]Man(b1-4)GlcNAc(b1-4)GlcNAc
How it was run: as §1

[17] = molecular target: Neu5Ac(a2-3)Gal(b1-4)GlcNAc(b1-2)[Neu5Ac(a2-3)Gal(b1-4)GlcNAc(b1-4)]Man(a1-3)[GlcNAc(b1-4)][Neu5Ac(a2-3)Gal(b1-4)GlcNAc(b1-4)Man(a1-6)]Man(b1-4)GlcNAc(b1-4)GlcNAc
How it was run: as §1

[18] = molecular target: Neu5Ac(a2-3)Gal(b1-4)GlcNAc(b1-2)[Neu5Ac(a2-3)Gal(b1-4)GlcNAc(b1-6)]Man(a1-6)[Neu5Ac(a2-3)Gal(b1-4)GlcNAc(b1-2)Man(a1-3)][GlcNAc(b1-4)]Man(b1-4)GlcNAc(b1-4)GlcNAc
How it was run: as §1

[19] = molecular target: Neu5Ac(a2-3)Gal(b1-4)GlcNAc(b1-3)Gal
How it was run: as §1

[20] = molecular target: Neu5Ac(a2-3)Gal(b1-4)GlcNAc(b1-3)Gal(b1-3)GlcNAc
How it was run: as §1

[21] = molecular target: Neu5Ac(a2-3)Gal(b1-4)GlcNAc(b1-3)Gal(b1-4)GlcNAc
How it was run: as §1

[22] = molecular target: Neu5Ac(a2-3)Gal(b1-4)GlcNAc(b1-3)Gal(b1-4)GlcNAc(b1-2)Man(a1-3)[Neu5Ac(a2-3)Gal(b1-4)GlcNAc(b1-3)Gal(b1-4)GlcNAc(b1-2)Man(a1-6)]Man(b1-4)GlcNAc(b1-4)GlcNAc
How it was run: as §1

[23] = molecular target: Neu5Ac(a2-3)Gal(b1-4)GlcNAc(b1-3)Gal(b1-4)GlcNAc(b1-3)Gal(b1-4)GlcNAc
How it was run: as §1

[24] = molecular target: Neu5Ac(a2-3)Gal(b1-4)GlcNAc(b1-3)Gal(b1-4)GlcNAc(b1-3)Gal(b1-4)GlcNAc(b1-2)Man(a1-3)[Neu5Ac(a2-3)Gal(b1-4)GlcNAc(b1-3)Gal(b1-4)GlcNAc(b1-3)Gal(b1-4)GlcNAc(b1-2)Man(a1-6)]GalNAc
How it was run: as §1

[25] = molecular target: Neu5Ac(a2-3)Gal(b1-4)GlcNAc(b1-3)Gal(b1-4)GlcNAc(b1-3)GalNAc
How it was run: as §1

[26] = molecular target: Neu5Ac(a2-3)Gal(b1-4)GlcNAc(b1-3)Gal(b1-4)GlcNAc(b1-3)[Neu5Ac(a2-3)Gal(b1-4)GlcNAc(b1-3)Gal(b1-4)GlcNAc(b1-6)]GalNAc
How it was run: as §1

[27] = molecular target: Neu5Ac(a2-3)Gal(b1-4)GlcNAc(b1-3)Gal(b1-4)GlcNAc(b1-6)[Gal(b1-3)]GalNAc
How it was run: as §1

[28] = molecular target: Neu5Ac(a2-3)Gal(b1-4)GlcNAc(b1-3)Gal(b1-4)[Fuc(a1-3)]GlcNAc
How it was run: as §1

[29] = molecular target: Neu5Ac(a2-3)Gal(b1-4)GlcNAc(b1-3)GalNAc
How it was run: as §1

[30] = molecular target: Neu5Ac(a2-3)Gal(b1-4)GlcNAc(b1-3)[Neu5Ac(a2-3)Gal(b1-4)GlcNAc(b1-6)]GalNAc
How it was run: as §1

[31] = molecular target: Neu5Ac(a2-3)Gal(b1-4)GlcNAc(b1-6)GalNAc
How it was run: as §1

[32] = molecular target: Neu5Ac(a2-3)Gal(b1-4)GlcNAc(b1-6)[Gal(b1-3)]GalNAc
How it was run: as §1

[33] = molecular target: Neu5Ac(a2-3)Gal(b1-4)GlcNAc(b1-6)[Neu5Ac(a2-3)Gal(b1-3)]GalNAc
How it was run: as §1

[34] = molecular target: Neu5Ac(a2-3)Gal(b1-4)GlcNAc6S
How it was run: as §1

[35] = molecular target: Neu5Ac(a2-3)Gal(b1-4)[Fuc(a1-3)]GlcNAc
How it was run: as §1

[36] = molecular target: Neu5Ac(a2-3)Gal(b1-4)[Fuc(a1-3)]GlcNAc(b1-2)Man
How it was run: as §1

[37] = molecular target: Neu5Ac(a2-3)Gal(b1-4)[Fuc(a1-3)]GlcNAc(b1-3)Gal
How it was run: as §1

[38] = molecular target: Neu5Ac(a2-3)Gal(b1-4)[Fuc(a1-3)]GlcNAc(b1-3)Gal(b1-4)GlcNAc
How it was run: as §1

[39] = molecular target: Neu5Ac(a2-3)Gal(b1-4)[Fuc(a1-3)]GlcNAc(b1-3)Gal(b1-4)[Fuc(a1-3)]GlcNAc(b1-3)Gal(b1-4)[Fuc(a1-3)]GlcNAc
How it was run: as §1

[40] = molecular target: Neu5Ac(a2-3)Gal(b1-4)[Fuc(a1-3)]GlcNAc(b1-3)GalNAc
How it was run: as §1

[41] = molecular target: Neu5Ac(a2-3)Gal(b1-4)[Fuc(a1-3)]GlcNAc(b1-6)[Gal(b1-3)]GalNAc
How it was run: as §1

[42] = molecular target: Neu5Ac(a2-3)Gal(b1-4)[Fuc(a1-3)]GlcNAc(b1-6)[Neu5Ac(a2-3)Gal(b1-3)]GalNAc
How it was run: as §1

[43] = molecular target: Neu5Ac(a2-3)Gal(b1-4)[Fuc(a1-3)]GlcNAc6S
How it was run: as §1

[44] = molecular target: Neu5Ac(a2-3)Gal6S(b1-4)GlcNAc
How it was run: as §1

[45] = molecular target: Neu5Ac(a2-3)Gal6S(b1-4)[Fuc(a1-3)]GlcNAc
How it was run: as §1

B1: rCnSL-proB (Clitocybe nebularis) (protein)
chain: PTFSPIFALLAFLPFGTLASLLPQTQLVFRINPNLPGPNDVFVGYRGTNNVVGAIYERDGIKDTPMNNGADAELGPGSYITDDLFTAQIFASGSAGNNPGTTATVCKIYADGVQWRGAPKGYLPVLYFGNGQAAEQTRQTYLQGLDIPGTAIRFANLAKTPNQGPTAPRQMVVPSGGLQTLLKASCFPANHAALPQVLSYFNVRAALPPGWNIRTGPEFPNWTN
[1]
  glycan array binding signal (z-score): 0.395
[2]
  glycan array binding signal (z-score): -0.555
[3]
  glycan array binding signal (z-score): -1.06
[4]
  glycan array binding signal (z-score): 0.025
[5]
  glycan array binding signal (z-score): -0.475
[6]
  glycan array binding signal (z-score): -0.637
[7]
  glycan array binding signal (z-score): 0.033
[8]
  glycan array binding signal (z-score): -0.547
[9]
  glycan array binding signal (z-score): 0.387
[10]
  glycan array binding signal (z-score): -1.12
[11]
  glycan array binding signal (z-score): 0.266
[12]
  glycan array binding signal (z-score): 0.189
[13]
  glycan array binding signal (z-score): -0.625
[14]
  glycan array binding signal (z-score): -0.176
[15]
  glycan array binding signal (z-score): -0.374
[16]
  glycan array binding signal (z-score): -0.474
[17]
  glycan array binding signal (z-score): -0.531
[18]
  glycan array binding signal (z-score): -0.904
[19]
  glycan array binding signal (z-score): 0.004
[20]
  glycan array binding signal (z-score): -0.271
[21]
  glycan array binding signal (z-score): 0.006
[22]
  glycan array binding signal (z-score): 1.89
[23]
  glycan array binding signal (z-score): -0.766
[24]
  glycan array binding signal (z-score): 4.43
[25]
  glycan array binding signal (z-score): -0.334
[26]
  glycan array binding signal (z-score): 0.264
[27]
  glycan array binding signal (z-score): -0.055
[28]
  glycan array binding signal (z-score): -0.633
[29]
  glycan array binding signal (z-score): -0.02
[30]
  glycan array binding signal (z-score): -0.215
[31]
  glycan array binding signal (z-score): -0.729
[32]
  glycan array binding signal (z-score): 0.329
[33]
  glycan array binding signal (z-score): -0.239
[34]
  glycan array binding signal (z-score): -0.914
[35]
  glycan array binding signal (z-score): -0.485
[36]
  glycan array binding signal (z-score): -2.18
[37]
  glycan array binding signal (z-score): 0.344
[38]
  glycan array binding signal (z-score): -0.211
[39]
  glycan array binding signal (z-score): -0.534
[40]
  glycan array binding signal (z-score): 0.245
[41]
  glycan array binding signal (z-score): 1.12
[42]
  glycan array binding signal (z-score): -0.168
[43]
  glycan array binding signal (z-score): -0.393
[44]
  glycan array binding signal (z-score): 0.829
[45]
  glycan array binding signal (z-score): -0.882
